First the molecules themselves.
T1: UNK ZnF1-3 (human, UniProt Q9C0B0 31-174)
T1 sequence: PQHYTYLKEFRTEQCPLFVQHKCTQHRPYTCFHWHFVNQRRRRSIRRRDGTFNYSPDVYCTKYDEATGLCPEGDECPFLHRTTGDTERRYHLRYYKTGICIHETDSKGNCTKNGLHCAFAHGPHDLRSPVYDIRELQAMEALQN

B1: chr1:225611761:225611762:-_ENSG00000143815_ENST00000272163|hu_mus|hu_hu_hu_mus_True|8_78 (ssRNA)
RNA: GGGAGUUCUACAGUCCGACGAUCCCAGGCCAUCGGCCUCUGACCACUUCACCCUCAGCAAAUUUCCUACUUGGCAUUUUCUAAAAUUAGUCUGGCCGCGCUCCGGCGGGAACUCCAGCCACUCCAGGGAGAAUAGUAGCAGCCCAACAGAGGAUUGAGCAUCA
B2: 102090863_102090983_4398_3pUTR_ENSG00000160991_ENST00000478730|human|control|control (ssRNA)
RNA: GGGAGUUCUACAGUCCGACGAUCACUUAAUACCUGCCUGGAUGCUGCCAGGCCAAGAGCUCUGCCUGGGGACCAGGUACAGUAACUGGCCCCCAGAUGGCACUGGAGAUGCGUUCCACAGUCUGGGGAGUGUGGUACUGCGUGCAACAGAGGAUUGAGCAUCA
B3: chr10:7398381:7398382:+_ENSMUSG00000040034_ENSMUST00000040135|mus_mus|motif|central (ssRNA)
RNA: GGGAGUUCUACAGUCCGACGAUCACUUACUAGAGACUGGUGAACACCGGCCUGGUUACUUAAGCUAUGUGACAGGAAAGUACGGCUUCUUCCUCCUUGGUGAAAGAGAGAAGACUUUUCAGGUGCAUCUGUGGAGGCAUCCCACAACAGAGGAUUGAGCAUCA
B4: 123113321_123137217_1693_CDS_ENSMUSG00000041650_ENSMUST00000038374|mouse|control|control (ssRNA)
RNA: GGGAGUUCUACAGUCCGACGAUCCGGCCCAUUGUUAGAUGCCACGACAGUAUGAUCUUCAUCAUGUAACUUUACCGAGAGCUCCCACUUAGCCACAUCAGGCCUAAUAACUGGUACUCUUGAAUGUUCUUGGAAGCGCUGAGCCAACAGAGGAUUGAGCAUCA
B5: chr10:116622662:116622663:+_ENSG00000151553_ENST00000369248|hu_hu|FALSE|FALSE (ssRNA)
RNA: GGGAGUUCUACAGUCCGACGAUCGAUAGGUGUAAAACAAGCCUCUAUGCACAUGCCACACAAUGCGUAUAUGCAAACAUGCUACAUAAAAUAACUUCCUAGAGGGGGUAGUGACAGUUCCCUUCAAGCCGGAACCUUUGAUAGCAACAGAGGAUUGAGCAUCA
B6: 75573374_75574134_1457_3pUTR_ENSG00000119638_ENST00000238616|human|control|control (ssRNA)
RNA: GGGAGUUCUACAGUCCGACGAUCUCUGAUCCGAAGGCAUAGAGCUGACCCUCAUCAGUCACACAGACAGUGAAAUCAUCACCACAUGACACCUGACGGAUAGCUUUGCCUUGCAACUUUUCCACAUGCUUUGGCUGUCGAUAGCAACAGAGGAUUGAGCAUCA
B7: chr6:64286377:64286378:+_ENSG00000112245_ENST00000370650|hu_hu|FALSE|FALSE (ssRNA)
RNA: GGGAGUUCUACAGUCCGACGAUCACUUGUCUGCAUAGAGGUCGUGCUGUGCCUGGCAGUAAUCUCCACUGCCCUUCAGAAACUCCAUAAAUGUGUGACCAAGAACACCACAGAAUUGAGGAAUAUGUUUACUCAUUGAAGAUUCAACAGAGGAUUGAGCAUCA
B8: chr5:90669548:90669549:-_ENSG00000113369_ENST00000265138|hu_mus|FALSE|FALSE (ssRNA)
RNA: GGGAGUUCUACAGUCCGACGAUCUGGAUCAAUCUCUGAAUAGAGAGGUGGGGGCAGGAACCGAAACUCCUGGAUAUAAGCAAACAGUGGUCCUUGGAGAGCUCUCUCAAAAUCAUCACAAGCACCCACUGGGGCGAGAUUAUUCAACAGAGGAUUGAGCAUCA
B9: chr5:143849297:143849298:-_ENSMUSG00000045078_ENSMUST00000053498|mus_mus|FALSE|FALSE (ssRNA)
RNA: GGGAGUUCUACAGUCCGACGAUCUACAUUCAAAUCAUAGUAAUUUUUCAAAUGAAUUAUUUCUUCAACAUAUCCACUUGCUACAUCUGGAAAUCUUGCUUCCGUUUCUUUCACUAACAGUGGAAUGAGGUCUUGAUCUACCUCCAACAGAGGAUUGAGCAUCA
B10: chr5:162900210:162900211:+_ENSG00000072571_ENST00000358715|hu_hu|FALSE|FALSE (ssRNA)
RNA: GGGAGUUCUACAGUCCGACGAUCUUCGAUGUAUUCCAAGAGUUUUUCUGUUUCAGAUUUUUCAUCAAUCUUUUCUUUCUCUAUUGAAACAAGUUUUCCCUCCAGUUGGGCUAUUUUCCCUUGAGACUCUUCGAGACUCCUUUGCAACAGAGGAUUGAGCAUCA
B11: chr16:83842930:83842931:+_ENSG00000230989_ENST00000433866|hu_mus|FALSE|FALSE (ssRNA)
RNA: GGGAGUUCUACAGUCCGACGAUCUUCUUCUACUCCAGCCUGGGUCAUGAGGUCAGCGAUAUUCUUCUCCAGGUCGUCAAUCCGACUGCUCAUGUCAUCUAUCCUUCCGAUGAUCUGGUCUGACAUGAUCUGAAACUUGUCUUGCAACAGAGGAUUGAGCAUCA
B12: chr1:65217810:65217811:-_ENSMUSG00000025950_ENSMUST00000097709|mus_mus|motif|central (ssRNA)
RNA: GGGAGUUCUACAGUCCGACGAUCAGCCUCUGCAGCAUCUUUGGUGACCUGGUCAUUGGUGGCAUCACGAUUCUCGGUGCCGGAAUCAUAGCUAUGCAGAUCCAGUUCCACAUAGGGAAGAAUAAGUUUUUCCUUAAUCAAUUCCAACAGAGGAUUGAGCAUCA
B13: chr12:39687547:39687548:-_ENSG00000139116_ENST00000551264|hu_mus|FALSE|FALSE (ssRNA)
RNA: GGGAGUUCUACAGUCCGACGAUCUUAGGAAAUCAACAGCUCACCGUCCCAGAAUCCGUGCCCAGCACUAACAACACAACGUCUACGCAGCAUUUCAAUCCUGAGCACAGAAUGAAGAACAACUGAAAGCUUUGGUCAAUACAGCAACAGAGGAUUGAGCAUCA
B14: 152987051_152987171_73_3pUTR_ENSMUSG00000068040_ENSMUST00000089027|mouse|control|control (ssRNA)
RNA: GGGAGUUCUACAGUCCGACGAUCUAAAAGAAGCUUAAUUUCUCCUUGGCAGAUUGGCCUUGGCAGUGAGGUCUCUGACUAGGUGAAGAGAACGUACGGUGUAACUAUUGGAGCCAUAUUGACUUCUGGCAGACCCGCUCCUCCCAACAGAGGAUUGAGCAUCA

Some of the results follow.

Data on 14 molecules can be found in article PMC12136788.

For this experiment, the target named is T1, UNK ZnF1-3. In words: nsRBNS (natural sequence RNA bind-n-seq); RBNS binding buffer (assumed for nsRBNS): 25 mM Tris pH 7.5, 150 mM KCl, 3 mM MgCl2, 0.01% Triton X-100, 500 ug/ml BSA, 20 U/ml SUPERase-In, 4 C; UNK is unkempt and MSI1 is Musashi-1; names of the RNAs are library labels; protein concentration not given here; high values mean tight binding.
In turn, B1 displayed a binding signal of 1.18 enrichment R. In the case of B2 it was 1.04 enrichment R; in that of B3, 0.933 enrichment R; in that of B4, 0.675 enrichment R. In the case of B5 it was 0.502 enrichment R. In the case of B6, the binding signal turned out to be 0.639 enrichment R.

As to B7, the binding signal was determined as 1.34 enrichment R. B8 came in with a binding signal of 1.26 enrichment R. In the case of B9 it was 0.534 enrichment R.

With B10, the binding signal amounted to 0.365 enrichment R. In the case of B11 it was 0.555 enrichment R; in that of B12, 1.17 enrichment R. In the case of B13 it was 0.77 enrichment R.

For the molecule B14, the binding signal is 0.909 enrichment R.
